Results are given in words; binding and its absence hold for the method and conditions named. Binding seen in cells or lysates may run through a third protein. Some entries that bind do so weakly or less than the wild type. Tags and fused reporters may be left off the sequences shown.

Amino acid sequences for entries named in this document (tags omitted).
UniProt Q14974: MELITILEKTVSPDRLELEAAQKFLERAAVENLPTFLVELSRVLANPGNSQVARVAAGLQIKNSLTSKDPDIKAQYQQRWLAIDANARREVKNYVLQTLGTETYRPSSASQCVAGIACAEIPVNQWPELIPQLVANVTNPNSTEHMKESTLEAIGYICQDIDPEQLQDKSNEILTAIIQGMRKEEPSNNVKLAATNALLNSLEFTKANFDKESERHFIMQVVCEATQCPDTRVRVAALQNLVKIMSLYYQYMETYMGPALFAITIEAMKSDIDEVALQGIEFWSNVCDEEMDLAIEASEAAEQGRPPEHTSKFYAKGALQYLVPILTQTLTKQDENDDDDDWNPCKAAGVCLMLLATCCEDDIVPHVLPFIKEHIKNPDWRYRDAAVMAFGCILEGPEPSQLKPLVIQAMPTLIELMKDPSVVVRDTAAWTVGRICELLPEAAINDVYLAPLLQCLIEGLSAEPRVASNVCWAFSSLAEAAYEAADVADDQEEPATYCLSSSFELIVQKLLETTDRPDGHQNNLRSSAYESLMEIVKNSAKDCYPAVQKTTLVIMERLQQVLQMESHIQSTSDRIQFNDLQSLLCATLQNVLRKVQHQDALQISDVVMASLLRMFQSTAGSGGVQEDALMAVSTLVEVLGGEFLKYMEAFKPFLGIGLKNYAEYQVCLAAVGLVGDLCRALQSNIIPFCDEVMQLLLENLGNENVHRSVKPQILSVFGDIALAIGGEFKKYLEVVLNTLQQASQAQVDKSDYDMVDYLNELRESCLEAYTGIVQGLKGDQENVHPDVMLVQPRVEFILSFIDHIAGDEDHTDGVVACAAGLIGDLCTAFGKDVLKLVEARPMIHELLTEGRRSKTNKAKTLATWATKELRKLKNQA
UniProt P04406: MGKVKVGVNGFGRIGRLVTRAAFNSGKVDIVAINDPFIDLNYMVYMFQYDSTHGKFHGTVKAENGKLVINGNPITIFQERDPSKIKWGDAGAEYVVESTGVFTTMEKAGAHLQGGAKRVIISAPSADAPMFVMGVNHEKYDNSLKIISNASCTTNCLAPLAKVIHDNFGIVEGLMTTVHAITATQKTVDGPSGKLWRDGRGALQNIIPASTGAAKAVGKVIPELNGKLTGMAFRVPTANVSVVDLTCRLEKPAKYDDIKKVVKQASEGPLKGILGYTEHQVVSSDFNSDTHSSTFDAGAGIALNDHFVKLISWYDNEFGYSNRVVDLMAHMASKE
UniProt Q04206: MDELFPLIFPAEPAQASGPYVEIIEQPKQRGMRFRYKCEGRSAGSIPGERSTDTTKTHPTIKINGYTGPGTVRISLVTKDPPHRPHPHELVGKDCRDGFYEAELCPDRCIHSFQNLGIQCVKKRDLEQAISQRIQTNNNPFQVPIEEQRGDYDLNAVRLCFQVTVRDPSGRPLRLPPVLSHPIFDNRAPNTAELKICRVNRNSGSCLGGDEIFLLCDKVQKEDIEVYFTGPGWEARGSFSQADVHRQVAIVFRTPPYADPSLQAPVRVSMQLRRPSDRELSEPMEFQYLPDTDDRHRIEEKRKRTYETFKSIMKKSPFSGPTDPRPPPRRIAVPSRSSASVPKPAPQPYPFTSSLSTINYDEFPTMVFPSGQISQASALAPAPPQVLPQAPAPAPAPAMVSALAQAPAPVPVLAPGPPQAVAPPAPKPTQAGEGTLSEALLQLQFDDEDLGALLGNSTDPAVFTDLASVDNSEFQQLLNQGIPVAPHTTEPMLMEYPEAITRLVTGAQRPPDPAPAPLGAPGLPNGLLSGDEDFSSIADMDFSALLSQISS
UniProt O00165: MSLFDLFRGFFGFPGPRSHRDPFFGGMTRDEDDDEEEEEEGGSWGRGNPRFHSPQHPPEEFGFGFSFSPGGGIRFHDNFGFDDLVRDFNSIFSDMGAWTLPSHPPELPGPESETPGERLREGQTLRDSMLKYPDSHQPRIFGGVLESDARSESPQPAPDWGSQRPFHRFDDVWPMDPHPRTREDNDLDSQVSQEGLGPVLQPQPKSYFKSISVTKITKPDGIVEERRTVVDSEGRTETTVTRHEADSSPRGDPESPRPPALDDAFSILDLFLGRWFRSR
UniProt O00629: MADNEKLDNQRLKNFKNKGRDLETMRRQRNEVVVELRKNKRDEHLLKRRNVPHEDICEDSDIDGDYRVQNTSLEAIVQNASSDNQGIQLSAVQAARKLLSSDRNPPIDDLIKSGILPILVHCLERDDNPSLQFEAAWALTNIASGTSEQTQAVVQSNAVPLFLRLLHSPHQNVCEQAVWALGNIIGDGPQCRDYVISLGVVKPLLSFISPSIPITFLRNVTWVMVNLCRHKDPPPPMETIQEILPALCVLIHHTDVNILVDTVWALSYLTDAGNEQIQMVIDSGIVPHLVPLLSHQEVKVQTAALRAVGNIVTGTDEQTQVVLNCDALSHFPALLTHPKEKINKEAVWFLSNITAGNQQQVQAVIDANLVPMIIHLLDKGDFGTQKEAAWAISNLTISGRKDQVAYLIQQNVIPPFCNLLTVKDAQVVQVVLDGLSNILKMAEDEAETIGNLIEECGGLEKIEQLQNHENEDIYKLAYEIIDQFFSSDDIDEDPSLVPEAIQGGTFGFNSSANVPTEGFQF
UniProt O00505: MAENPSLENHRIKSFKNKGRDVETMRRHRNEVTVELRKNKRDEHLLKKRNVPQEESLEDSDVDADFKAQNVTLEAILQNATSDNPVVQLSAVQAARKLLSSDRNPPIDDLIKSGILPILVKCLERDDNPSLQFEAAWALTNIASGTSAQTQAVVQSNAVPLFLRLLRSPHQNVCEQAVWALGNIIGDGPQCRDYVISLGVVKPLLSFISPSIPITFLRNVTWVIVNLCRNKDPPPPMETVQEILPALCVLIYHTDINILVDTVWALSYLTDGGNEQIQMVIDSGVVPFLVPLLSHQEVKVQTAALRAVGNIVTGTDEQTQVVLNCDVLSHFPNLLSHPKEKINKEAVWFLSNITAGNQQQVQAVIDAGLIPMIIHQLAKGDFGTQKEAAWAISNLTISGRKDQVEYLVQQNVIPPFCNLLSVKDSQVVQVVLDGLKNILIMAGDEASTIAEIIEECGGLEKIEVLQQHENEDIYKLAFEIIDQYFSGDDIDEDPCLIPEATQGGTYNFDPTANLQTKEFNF
UniProt P52294: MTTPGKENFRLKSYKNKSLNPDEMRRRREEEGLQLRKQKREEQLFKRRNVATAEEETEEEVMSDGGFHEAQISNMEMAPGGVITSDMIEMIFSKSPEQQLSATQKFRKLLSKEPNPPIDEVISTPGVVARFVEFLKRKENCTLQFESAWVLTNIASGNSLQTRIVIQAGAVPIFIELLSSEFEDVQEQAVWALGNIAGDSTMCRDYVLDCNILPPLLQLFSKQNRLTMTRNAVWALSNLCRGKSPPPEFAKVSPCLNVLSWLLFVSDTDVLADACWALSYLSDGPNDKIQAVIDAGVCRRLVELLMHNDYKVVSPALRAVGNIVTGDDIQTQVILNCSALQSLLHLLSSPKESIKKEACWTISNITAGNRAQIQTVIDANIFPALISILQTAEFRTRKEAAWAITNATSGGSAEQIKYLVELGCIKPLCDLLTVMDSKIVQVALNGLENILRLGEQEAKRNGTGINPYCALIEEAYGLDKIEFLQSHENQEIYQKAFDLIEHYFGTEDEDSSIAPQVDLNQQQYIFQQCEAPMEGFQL
UniProt O15131: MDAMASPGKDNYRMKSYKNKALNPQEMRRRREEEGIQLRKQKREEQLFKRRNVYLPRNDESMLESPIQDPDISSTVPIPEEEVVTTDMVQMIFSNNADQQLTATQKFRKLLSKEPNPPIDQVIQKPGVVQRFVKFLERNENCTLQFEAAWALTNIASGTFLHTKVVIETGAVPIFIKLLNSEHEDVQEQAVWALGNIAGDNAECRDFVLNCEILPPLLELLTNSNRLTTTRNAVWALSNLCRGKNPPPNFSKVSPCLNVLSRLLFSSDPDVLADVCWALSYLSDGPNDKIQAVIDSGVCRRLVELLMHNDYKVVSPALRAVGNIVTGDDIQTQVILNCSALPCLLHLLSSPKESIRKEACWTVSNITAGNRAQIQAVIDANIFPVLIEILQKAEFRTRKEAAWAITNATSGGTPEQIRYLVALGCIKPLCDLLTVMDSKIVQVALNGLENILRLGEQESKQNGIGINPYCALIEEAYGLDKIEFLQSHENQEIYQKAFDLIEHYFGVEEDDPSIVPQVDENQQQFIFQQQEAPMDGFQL

The chains are these.
T1: IL-1α precursor fused with a HiBiT-tag at the N-terminus and a His-tag at the C-terminus (HiBiT-IL-1α-His) (human) (UniProt P01583)
T1 sequence: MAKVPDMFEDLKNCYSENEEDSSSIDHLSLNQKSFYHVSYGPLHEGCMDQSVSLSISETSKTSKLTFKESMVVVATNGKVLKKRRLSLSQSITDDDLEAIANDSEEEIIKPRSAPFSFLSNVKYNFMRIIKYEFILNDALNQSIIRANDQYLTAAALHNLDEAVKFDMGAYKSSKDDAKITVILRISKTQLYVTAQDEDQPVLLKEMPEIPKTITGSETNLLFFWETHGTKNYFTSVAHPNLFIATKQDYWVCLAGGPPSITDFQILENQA

B1: IL-1α precursor fused with a HiBiT-tag at the N-terminus and a His-tag at the C-terminus (HiBiT-IL-1α-His) (protein, UniProt P01583 1-271)
chain: MAKVPDMFEDLKNCYSENEEDSSSIDHLSLNQKSFYHVSYGPLHEGCMDQSVSLSISETSKTSKLTFKESMVVVATNGKVLKKRRLSLSQSITDDDLEAIANDSEEEIIKPRSAPFSFLSNVKYNFMRIIKYEFILNDALNQSIIRANDQYLTAAALHNLDEAVKFDMGAYKSSKDDAKITVILRISKTQLYVTAQDEDQPVLLKEMPEIPKTITGSETNLLFFWETHGTKNYFTSVAHPNLFIATKQDYWVCLAGGPPSITDFQILENQA

The target in the first experiment is Importin subunit beta (importin β1) (human (endogenous in HeLa)) (UniProt Q14974). Nature of the experiment: co-IP; anti-importin β1 antibody coupled to Dynabeads M-270 Epoxy; lysate of HeLa cells expressing His-tag-fused IL-1α, 30 min at 4 °C; input, supernatant and pellet fractions blotted.
Turning to GAPDH (from UniProt P04406 1-335), the binding entry is “no binding”.

Consider p65 (from UniProt Q04206 1-551), for which the binding entry is recorded as “binds”.

Take B1: the binding result is “no binding”.

For another experiment, the target named is T1, IL-1α precursor fused with a HiBiT-tag at the N-terminus and a His-tag at the C-terminus (HiBiT-IL-1α-His) (human). Put plainly: pull-down; cobalt-based IMAC (Dynabeads His-Tag Isolation and Pulldown) of His-tag-fused IL-1α from lysate of transfected HeLa cells; beads 5 min at room temperature; washes in 50 mM Na-phosphate pH 8.0, 300 mM NaCl, 0.01% Tween 20; elution with 300 mM imidazole; flow-through and elution fractions blotted.
In the case of GAPDH (from UniProt P04406 1-335), the binding result was “no binding”.

Take “HCLS1-associated protein X-1 (from UniProt O00165 1-279)”: the binding result is recorded as “binds”.

Regarding “Importin subunit alpha-3 (from UniProt O00629 1-521)”, the binding result is on record as “binds”.

Take “Importin subunit alpha-4 (from UniProt O00505 1-521)”: the binding entry was “binds”.

As to “Importin subunit alpha-5 (from UniProt P52294 1-538)”, the binding result is listed as “binds”.

As for “Importin subunit alpha-6 (from UniProt O15131 1-539)”, the binding entry is recorded as “binds”.

With “Importin subunit alpha-7 (from UniProt O60684 1-536)”, the binding entry is listed as “binds”.

Regarding “Importin subunit beta (importin β1) (from UniProt Q14974 1-876)”, the binding result is “no binding”.

For the origin of these results see publication PMC10789739.
